Results on 83 compounds are retold here after ChEMBL document CHEMBL1201862, “PubChem BioAssay data set” (2004).

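1) Cells in 96-well plates. 2) Compound, 48 h, 5 concentrations. 3) Linear interpolation between surrounding doses. 4) Unreached endpoint = highest concentration. GI50: concentration for 50% inhibition of growth.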 Calls of active or inactive are those of the source. Cut-off read from the data, not from the text of the source: active = GI50 up to about 1.1 µM and inactive = higher.

For this experiment, the system named is NCI-H322M. The experiment in a line: DTP human tumour cell line panel, 48 h.
With `N#C/C(=C\c1ccc(O)c(O)c1)C(=O)NC1CCC(CC2CCC(NC(=O)/C(C#N)=C/c3ccc(O)c(O)c3)CC2)CC1` (stereo not drawn), the GI50 (in general, the concentration at which growth is held to half of that of the control) is inactive: 13.1 µM.

As to `O=C1c2ccccc2C(=O)c2c(NCCNCCO)ccc(O)c21`, the GI50 is inactive: 2.67 µM.

`COc1cc2c(cc1O)CCN[C@@]21CS[C@H]2c3c(OC(C)=O)c(C)c4c(c3C(COC1=O)N1C2C2c3c(cc(C)c(OC)c3O)CC([C@@H]1O)N2C)OCO4` (stereo partly drawn): the concentration for 50% growth inhibition (GI50) was active: 0.0146 µM.

`C=CCn1cnc2c(O)nc(Nc3ccccc3)nc21`: the GI50 is inactive: > 100 µM.

`c1ccc([P+](CCC[P+](c2ccccc2)(c2ccccc2)c2ccccc2)(c2ccccc2)c2ccccc2)cc1`: the GI50 was inactive: 98.4 µM.

Turning to `CN(C)CC1CC/C(=C\c2ccc(O)cc2)C1=O` (stereo not drawn), the GI50 was inactive: 16.8 µM.

Turning to `Cc1ccc(N)cc1.O=S(=O)(O)/C(=C\c1ccccc1)c1ccccc1`, the GI50 is inactive: > 100 µM.

On to `COc1cc(-c2cc(O)c(-c3ccc4ccccc4n3)c(O)n2)cc(OC)c1OC`, for which the GI50 is inactive: > 69.5 µM.

`O=C1Nc2ccccc2C1(O)Cc1ccccn1` (stereo not drawn): the GI50 was inactive: > 100 µM.

Regarding `Cc1ccc(S(=O)(=O)Nn2c(-c3ccccc3)c(C#N)c(-c3ccc(Cl)cc3)c(C#N)c2=O)cc1`, the GI50 was inactive: 23 µM.

Regarding `CC(=O)O[C@H]1CCC2[C@@H]3CCC4=C(O)c5nocc5C[C@]4(C)C3CC[C@@]21C` (stereo partly drawn), the GI50 is inactive: > 100 µM.

Consider `COc1cccc(C2CC(=O)c3cccn32)c1` (stereo not drawn), for which the GI50 was inactive: > 100 µM.

As for `COC(=O)N/N=C(\c1nc2ccc(Cl)cc2nc1O)C(O)c1ccc([N+](=O)[O-])cc1` (stereo not drawn), the GI50 is inactive: > 100 µM.

`O=C(/N=C1/NCC(CN2CCN(c3ccccc3)CC2)O1)Nc1ccccc1` (stereo not drawn): the GI50 was inactive: > 100 µM.

Regarding `Cc1ccc(S(=O)(=O)NC(=O)Nc2ccc(S(N)(=O)=O)cc2S(N)(=O)=O)cc1`, the GI50 was inactive: > 100 µM.

On to `Cc1cccc(Br)[n+]1[O-]`, for which the GI50 is inactive: > 100 µM.

On to `Cc1ccc([N+](=O)[O-])cc1S(=O)(=O)Nc1ccc(C2=NN(C(=O)c3ccccc3)C(c3cccs3)C2)cc1` (stereo not drawn), for which the GI50 is inactive: 35.6 µM.

On to `COC(=O)c1cc2c(cc1Cl)Sc1nnc(Nc3ccccc3)n1S2(=O)=O`, for which the GI50 is inactive: 6.81 µM.

Regarding `CCOC(=O)C1=C(C)OC(=O)[C@@]2(OC)C=C(Cl)[C@@]12C`, the GI50 was inactive: > 100 µM.

With `CN(C)CCC(C(=O)C(C)(C)C)c1ccccn1` (stereo not drawn), the GI50 was inactive: > 100 µM.

On to `Clc1cc(N/N=C(/c2ccccc2)c2ncccn2)ncn1`, for which the GI50 was inactive: 24.3 µM.

As for `O=C1C=CC(=O)N1c1ccc2c(c1)Cc1cc(NC(=O)C(F)(F)F)ccc1-2`, the GI50 was inactive: > 42.4 µM.

Regarding `CCCCCCCCCCCCCC[S+](C)C`, the GI50 was inactive: 5.12 µM.

Turning to `Cc1ccc(O)c(C2=CC(c3cccc(Br)c3)SC(=N)N2)c1` (stereo not drawn), the GI50 was inactive: 33.7 µM.

For the compound `CCOC(=O)CCC(NC(=O)c1ccc(Nc2cnc3cc(C(F)(F)F)ccc3n2)cc1)C(=O)OCC` (stereo not drawn), the GI50 was inactive: > 100 µM.

Take `CNC(=O)OC1/C(C)=C\C(C)C(O)C(OC)CC(C)CC2=C(OC)C(=O)C=C(C2=O)N(C)C(=O)/C(C)=C/C=C\C1OC` (stereo not drawn): the GI50 was inactive: 21.4 µM.

Take `CN(c1ccccc1)C(c1ccccc1)C(O)c1ccccc1` (stereo not drawn): the GI50 was inactive: 18.4 µM.

As for `CCC1NC(=O)C1NC(=O)OC` (stereo not drawn), the GI50 is inactive: > 100 µM.

In the case of `c1ccc2c(c1)[Se]c1ccccc1[Se]2`, the GI50 is inactive: 74.3 µM.

For `COc1cc2ccnc(-c3n[nH]c4cc(OC)c(OC)cc34)c2cc1OC`, the GI50 is inactive: > 100 µM.

Turning to `OCC(CCc1ccccc1I)C1=CCC2(CC1)OCCO2` (stereo not drawn), the GI50 was inactive: 20.4 µM.

`COc1ccccc1C(=O)Nc1ccc(Cl)c(C(=O)OC(C)C)c1`: the GI50 was inactive: > 100 µM.

As for `S=c1sc2c(s1)SC(c1ccccc1)CS2` (stereo not drawn), the GI50 is inactive: > 100 µM.

Consider `N[C@@H](Cc1ccc2oc3cc(=O)c4ccccc4c-3nc2c1)C(=O)O`, for which the GI50 was inactive: 30.5 µM.

As for `CCNC(=O)O/N=C1\CCC2[C@@H]3CC=C4C[C@@H](OC5CCCCO5)CC[C@]4(C)C3CC[C@]12C` (stereo partly drawn), the GI50 was inactive: 4.24 µM.

As for `C=CCOC(=O)CC[C@H](NC(=O)[C@@H](CCC(F)(F)F)Cc1ccc(O)cc1)C(=O)OCC=C`, the GI50 was inactive: 63.4 µM.

For `CC(=O)c1cccn1/C=C(\OC(=O)OC(C)(C)C)c1ccc[nH]1`, the GI50 was inactive: 55.7 µM.

`NC(=S)N/N=C(\C(=O)Nc1cccc([N+](=O)[O-])c1)c1nc2ccc([N+](=O)[O-])cc2nc1O`: the GI50 was inactive: 46.3 µM.

As to `COc1ccc(C(=O)Cc2ccc(Br)cc2)cc1OC`, the GI50 was inactive: > 100 µM.

For the compound `COc1cc2cccc(/N=C\c3ccccc3Cl)c2cc1OC`, the GI50 is inactive: > 100 µM.

Take `CCOC(=O)C1=C(C)C2C3C(=O)OC(=O)C3C1(C)C1C(=O)OC(=O)C21` (stereo not drawn): the GI50 is inactive: 76.4 µM.

As for `O=[N+]([O-])C(Cl)C(Cl)C(Cl)=C(Cl)Cl` (stereo not drawn), the GI50 is inactive: 52.8 µM.

Take `COc1ccc(Nc2nc3c(N)cc(C(F)(F)F)cc3nc2-c2ccccc2)cc1OC`: the GI50 is inactive: 31.6 µM.

Consider `Cc1ccc2c(c1)CC1(C2=O)[C@H](c2ccccc2)C2C(=O)c3ccc(C)cc3C2[C@H]1c1ccccc1` (stereo partly drawn), for which the GI50 was inactive: > 100 µM.

Turning to `O=C1CCCCCCCCCCC1CN1CCCC1` (stereo not drawn), the GI50 was inactive: 44.4 µM.

Turning to `COc1ccccc1/C=C1\C(=O)N(C(=O)Cc2ccccc2)N=C1C`, the GI50 is inactive: 28.6 µM.

Consider `O=C1/C(=C/c2cccc(Oc3ccccc3)c2)N=C(c2ccccc2)N1c1nc2ccc(Sc3ccccc3)cc2[nH]1`, for which the GI50 was inactive: 53.8 µM.

Turning to `N#Cc1ccccc1-c1nc2c3c(c(N)ccc3n1)C(=O)c1ccccc1-2`, the GI50 is inactive: 71.1 µM.

Consider `Cc1ccc(NC(=O)C23CC4CC(CC(C4)C2)C3)c(C(=O)NNC(=O)c2ccc(Cl)cc2)c1`, for which the GI50 was inactive: 17.7 µM.

Take `C=CCOc1ccc(C2C(C(=O)OC)C(=O)CC(O)(c3ccccc3)C2C(=O)OC)cc1OC` (stereo not drawn): the GI50 is inactive: 26.3 µM.

Take `COc1c(CC(C)=O)c2ccccc2n1C(C)=O`: the GI50 was inactive: > 100 µM.

`O=c1c(Cl)c(Cl)cnn1CCCl`: the GI50 is inactive: 9.35 µM.

Consider `CN(C)c1nnnn1-c1c(N)n(C)c(=O)n(C)c1=O`, for which the GI50 was inactive: > 100 µM.

On to `N=C(N)NCCN1CCCCCc2ccccc21`, for which the GI50 was inactive: > 10 µM.

Consider `COC(=O)c1c(O)ccc2c1c1cc3ccccc3cc1n2Cc1cc(OC)cc(OC)c1`, for which the GI50 was inactive: 6.56 µM.

For the compound `CC(C(=O)NCCNC(=O)CCCC(=O)N(C)O)C(=O)NCCNC(=O)CCCC(=O)N(C)O`, the GI50 is inactive: > 100 µM.

For `CCCC(O)C(NC(=O)CCl)C(=O)O` (stereo not drawn), the GI50 was inactive: > 100 µM.

For the compound `N#CC(C#N)=c1ccc(=C2NCC3CCCN23)cc1` (stereo not drawn), the GI50 was inactive: > 100 µM.

For `Cn1c(N/N=C/c2ccccc2)nc(-c2ccc3c(c2)OCO3)c(C#N)c1=O`, the GI50 is inactive: > 100 µM.

Regarding `N=C(N)N/N=C/c1c[nH]c2ccccc12`, the GI50 is inactive: > 100 µM.

With `O=C(CSCC(=O)N/N=C\c1cc(Br)cc(Br)c1O)N/N=C\c1cc(Br)cc(Br)c1O`, the GI50 is inactive: 6.73 µM.

For the compound `CNCCCNc1c2ccccc2nc2cccc([N+](=O)[O-])c12`, the GI50 is active: 0.00562 µM.

For the compound `Nc1nc(Nc2ccccc2)sc1C(=O)c1cccs1`, the GI50 was inactive: 6.34 µM.

Turning to `CCOC(=O)C(O)(NC(=O)NC(O)(C(=O)OCC)C(F)(F)F)C(F)(F)F` (stereo not drawn), the GI50 is inactive: > 100 µM.

Regarding `O=Cc1[nH]c2ccccc2c1Br`, the GI50 is inactive: 38.5 µM.

Regarding `COc1cc2c(c(OC)c1OC)C(=O)[C@@H]1[C@H]2N1C(=O)NCCCl`, the GI50 was inactive: 40.8 µM.

For `C=CCNC(=O)NC(=O)CSC1=NC(=O)C2(NN1)c1ccccc1-c1ccccc12`, the GI50 was inactive: > 10 µM.

Regarding `COc1cc(/C=C2/SC(c3ccccc3)N(c3ccc(NC(C)=O)cc3)C2=O)cc(OC)c1OC` (stereo not drawn), the GI50 is inactive: > 100 µM.

As for `NS(=O)(=O)c1ccc(/N=N/c2cc3ccccc3c(C(=O)O)c2O)cc1`, the GI50 was inactive: > 58.2 µM.

`CN(C)CCCN1N=Nc2cccc3cccc1c23`: the GI50 is inactive: > 100 µM.

Consider `O=C1c2ccccc2C(=O)c2sc(Nc3ccccc3Cl)nc21`, for which the GI50 was inactive: 15.3 µM.

As for `O=C(NCCCCNCCCNC(=O)c1cc(-c2ccccc2)nc2ccccc12)c1cc(-c2ccccc2)nc2ccccc12`, the GI50 is inactive: 1.78 µM.

For `OC1CCC(C2C3CCCCC3C3CCCCC3C2C2CCC(O)CC2)CC1` (stereo not drawn), the GI50 was inactive: 4.44 µM.

With `O=c1cnn2c(n1)sc1ccc3ccccc3c12`, the GI50 is inactive: > 100 µM.

Consider `CN(C)CC(C)(C)C(/C=C/c1ccccc1)=N\Nc1ccccc1`, for which the GI50 was inactive: 28.9 µM.

`CC(=O)O[C@H]1CC[C@@]2(C)C(=C[C@H](c3ccc(O)cc3)[C@H]3[C@@H]4CC[C@H](OC(C)=O)[C@@]4(C)CC[C@@H]32)C1`: the GI50 is inactive: 17.3 µM.

On to `O=C1N(c2ccccc2)C(=O)C2(SC=NN2Cc2ccccc2)N1c1ccccc1` (stereo not drawn), for which the GI50 is inactive: > 100 µM.

For the compound `OCC(O)C(O)C(O)c1nn(-c2ccccc2)c2nc3cc(Cl)c(Cl)cc3nc12` (stereo not drawn), the GI50 is inactive: > 100 µM.

On to `Cc1ccccc1C(=O)NC(O)(C(F)(F)F)C(F)(F)F`, for which the GI50 is inactive: > 100 µM.

Turning to `CC(=O)NC(Cc1ccccc1)C(=S)N1CCCC1` (stereo not drawn), the GI50 is inactive: > 100 µM.

In the case of `CCN(CC)c1ccc2cc(C(N)=O)/c(=N/c3ccc(F)cc3)oc2c1`, the GI50 is inactive: 4.55 µM.

For `COc1cc2c[n+](C)c3c4cc(OC)c(OC)cc4c(OCCCCCCCCOc4cc5c6cc(OC)c(OC)cc6c[n+](C)c5c5cc(OC)c(OC)cc45)cc3c2cc1OC`, the GI50 was inactive: > 100 µM.

Regarding `CNC(=S)N/N=C1\C(=O)N(CN2CCOCC2)c2ccc([N+](=O)[O-])cc21`, the GI50 is inactive: 15.9 µM.
